Reference: the supplement of paper PMC10126150
Values marked as one replicate rest on one cluster of the flow cell; about a third of the high ones do not repeat.

Test system: ATP
Assay: switch fluorescence ratio, 500 uM ATP over buffer (Cy3 cluster intensity, sum of 5 cycles each) (fold (ratio)); higher = stronger signal-on switching upon ATP binding; sequences stand for … in TCGTCGGCAGCGTCAGATGTGTATAAGAGACAGTTTTTTTTTTTTTTTTTTTTTTTTT…TC
Conditions: aptamer strand: ATP DNA aptamer (quencher-CACCTGGGGGAGTATTGCGGAGGAAGG + anchor), 100 nM annealed; ATP concentration: 500 uM; one replicate
Method in brief: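 For every switch-domain sequence, the fluorescence ratio is the mean of per-cluster values, each being summed target-cycle Cy3 intensity over summed buffer-cycle Cy3 intensity. Clusters outside 100-1000 RFU were excluded. On a modified Illumina MiSeq flow-cell, the Cy3-labelled switching-strand clusters were annealed to 100 nM quencher-labelled ATP aptamer, imaged in selection buffer and then after 15 min with 500 uM ATP at 22 °C. Five such cycles were run, with NaOH stripping and re-annealing between them.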
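Also: ATP exposure 15 min at 22 °C before imaging.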

Row | Sequence | switch fluorescence ratio
1 | GATTGTGCAG | 0.976
2 | GATTGTGGCT | 1.01
3 | GATTTAAGAA | 1.02
4 | GATTTAGGGC | 0.961
5 | GATTTAGTGA | 1.03
6 | GATTTCCCTA | 0.983
7 | GATTTCCTAG | 0.951
8 | GATTTCGTAA | 0.987
9 | GATTTGGATC | 0.955
10 | GATTTGGCCT | 1.21
11 | GATTTTGATT | 1
12 | GCAAAAAAT | 0.976
13 | GCAAACACAT | 0.976
14 | GCAAACCACA | 1.08
15 | GCAAACTGCT | 1
16 | GCAAAGTATA | 0.996
17 | GCAAATCAC | 1.15
18 | GCAAATTTAA | 1.01
19 | GCAACAACTA | 1.04
20 | GCAACACCTT | 1.15
21 | GCAACAGGTC | 0.924
22 | GCAACGGAAG | 1.01
23 | GCAACTTACG | 1.39
24 | GCAAGAACAT | 1.07
25 | GCAAGACTTT | 1.59

Row | Sequence | switch fluorescence ratio
26 | GCAAGCCAGC | 1.02
27 | GCAAGGTGGA | 0.976
28 | GCAAGTACAA | 1.33
29 | GCAATACAGG | 5.4
30 | GCAATAGGGA | 1.43
31 | GCAATCCGCA | 1.58
32 | GCAATCT | 1.47
33 | GCAATGGCCG | 0.971
34 | GCAATGTTTG | 1.13
35 | GCAATTGCGA | 1.04
36 | GCAATTTCGA | 1.23
37 | GCAATTTTAT | 1.09
38 | GCACAAGAGG | 1.01
39 | GCACACATGC | 1.01
40 | GCACAGTGGC | 0.949
41 | GCACCACATG | 1.02
42 | GCACCATTTT | 1.02
43 | GCACCCCATT | 0.966
44 | GCACCGACAG | 1.24
45 | GCACCGGGGT | 0.958
46 | GCACCTATCC | 1.66
47 | GCACGAGCCT | 1.12
48 | GCACGCAAGG | 1.3
49 | GCACGTATGC | 1.02
50 | GCACGTTGAC | 1.15

Row | Sequence | switch fluorescence ratio
51 | GCACTCATTT | 1.06
52 | GCACTTTATG | 0.979
53 | GCAGAAAACT | 1.33
54 | GCAGAAACGC | 0.971
55 | GCAGACTGGG | 0.978
56 | GCAGAGATTG | 1.02
57 | GCAGATAGGA | 1.04
58 | GCAGATATGT | 1.03
59 | GCAGATGTCG | 0.931
60 | GCAGCACTCG | 1.31
61 | GCAGCAGCG | 1.02
62 | GCAGCGGCAC | 1.33
63 | GCAGCGGCCG | 1.02
64 | GCAGCGGTGC | 1.17
65 | GCAGCGTAG | 1
66 | GCAGCTTT | 1.03
67 | GCAGGCCAAG | 1.23
68 | GCAGGGTA | 0.977
69 | GCAGGTTCGT | 0.976
70 | GCAGTAAGTC | 1.04
71 | GCAGTACGGA | 1.97
72 | GCAGTATTTA | 1
73 | GCAGTCGACC | 1.12
74 | GCAGTCTCAT | 0.969
75 | GCAGTGACGC | 1.07

Row | Sequence | switch fluorescence ratio
76 | GCATAAAGAC | 1.11
77 | GCATAAATGA | 0.993
78 | GCATACATTG | 1.03
79 | GCATACGGCA | 1.04
80 | GCATAGAACC | 1.06
81 | GCATAGCAAG | 0.958
82 | GCATAGCACA | 1.04
83 | GCATAGGTGG | 1.03
84 | GCATATACTG | 2.17
85 | GCATCATGTG | 1.01
86 | GCATCATTAG | 1.03
87 | GCATCATTTT | 1.01
88 | GCATCGACCT | 1.28
89 | GCATCGTGGA | 0.999
90 | GCATCTCGGA | 1.06
91 | GCATCTGACA | 1.03
92 | GCATCTTGAC | 1.04
93 | GCATGAGCAT | 0.999
94 | GCATGAGTTC | 1.01
95 | GCATGCCGCG | 0.987
96 | GCATGCCGGG | 0.963
97 | GCATGCTGT | 0.995
98 | GCATGGGACA | 1.01
99 | GCATGTAAGT | 1.02
100 | GCATGTATCG | 0.976
